No constants are given. Whether binding was seen depends on the method and setting. In cells and extracts the contact can be indirect. Some results given as binding are weak or reduced against the parent protein; the word gives no strength. Tags and fused reporters may be left off the sequences shown.
T1: YFP-TBR1 p.Q418R (human) (UniProt Q16650)
T1 sequence: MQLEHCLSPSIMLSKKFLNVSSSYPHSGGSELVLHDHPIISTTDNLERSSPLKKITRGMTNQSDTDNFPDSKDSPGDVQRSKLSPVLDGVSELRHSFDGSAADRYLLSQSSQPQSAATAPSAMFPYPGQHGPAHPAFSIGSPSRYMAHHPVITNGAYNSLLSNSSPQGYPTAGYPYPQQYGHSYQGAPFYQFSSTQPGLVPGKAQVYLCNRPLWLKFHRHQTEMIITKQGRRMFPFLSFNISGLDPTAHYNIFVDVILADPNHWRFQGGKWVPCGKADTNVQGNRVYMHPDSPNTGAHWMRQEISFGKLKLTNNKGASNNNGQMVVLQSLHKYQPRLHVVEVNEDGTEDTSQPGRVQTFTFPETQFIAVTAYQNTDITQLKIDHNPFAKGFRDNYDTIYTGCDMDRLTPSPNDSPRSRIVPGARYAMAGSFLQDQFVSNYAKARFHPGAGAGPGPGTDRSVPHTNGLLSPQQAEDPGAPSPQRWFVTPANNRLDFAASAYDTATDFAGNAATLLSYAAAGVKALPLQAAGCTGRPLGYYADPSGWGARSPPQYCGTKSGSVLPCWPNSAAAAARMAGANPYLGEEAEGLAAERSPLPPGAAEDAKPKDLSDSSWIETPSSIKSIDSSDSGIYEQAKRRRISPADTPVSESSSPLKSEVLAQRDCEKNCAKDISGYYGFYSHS

By UniProt entry, the sequences of proteins in these tests, tags left out.
UniProt Q6W2J9: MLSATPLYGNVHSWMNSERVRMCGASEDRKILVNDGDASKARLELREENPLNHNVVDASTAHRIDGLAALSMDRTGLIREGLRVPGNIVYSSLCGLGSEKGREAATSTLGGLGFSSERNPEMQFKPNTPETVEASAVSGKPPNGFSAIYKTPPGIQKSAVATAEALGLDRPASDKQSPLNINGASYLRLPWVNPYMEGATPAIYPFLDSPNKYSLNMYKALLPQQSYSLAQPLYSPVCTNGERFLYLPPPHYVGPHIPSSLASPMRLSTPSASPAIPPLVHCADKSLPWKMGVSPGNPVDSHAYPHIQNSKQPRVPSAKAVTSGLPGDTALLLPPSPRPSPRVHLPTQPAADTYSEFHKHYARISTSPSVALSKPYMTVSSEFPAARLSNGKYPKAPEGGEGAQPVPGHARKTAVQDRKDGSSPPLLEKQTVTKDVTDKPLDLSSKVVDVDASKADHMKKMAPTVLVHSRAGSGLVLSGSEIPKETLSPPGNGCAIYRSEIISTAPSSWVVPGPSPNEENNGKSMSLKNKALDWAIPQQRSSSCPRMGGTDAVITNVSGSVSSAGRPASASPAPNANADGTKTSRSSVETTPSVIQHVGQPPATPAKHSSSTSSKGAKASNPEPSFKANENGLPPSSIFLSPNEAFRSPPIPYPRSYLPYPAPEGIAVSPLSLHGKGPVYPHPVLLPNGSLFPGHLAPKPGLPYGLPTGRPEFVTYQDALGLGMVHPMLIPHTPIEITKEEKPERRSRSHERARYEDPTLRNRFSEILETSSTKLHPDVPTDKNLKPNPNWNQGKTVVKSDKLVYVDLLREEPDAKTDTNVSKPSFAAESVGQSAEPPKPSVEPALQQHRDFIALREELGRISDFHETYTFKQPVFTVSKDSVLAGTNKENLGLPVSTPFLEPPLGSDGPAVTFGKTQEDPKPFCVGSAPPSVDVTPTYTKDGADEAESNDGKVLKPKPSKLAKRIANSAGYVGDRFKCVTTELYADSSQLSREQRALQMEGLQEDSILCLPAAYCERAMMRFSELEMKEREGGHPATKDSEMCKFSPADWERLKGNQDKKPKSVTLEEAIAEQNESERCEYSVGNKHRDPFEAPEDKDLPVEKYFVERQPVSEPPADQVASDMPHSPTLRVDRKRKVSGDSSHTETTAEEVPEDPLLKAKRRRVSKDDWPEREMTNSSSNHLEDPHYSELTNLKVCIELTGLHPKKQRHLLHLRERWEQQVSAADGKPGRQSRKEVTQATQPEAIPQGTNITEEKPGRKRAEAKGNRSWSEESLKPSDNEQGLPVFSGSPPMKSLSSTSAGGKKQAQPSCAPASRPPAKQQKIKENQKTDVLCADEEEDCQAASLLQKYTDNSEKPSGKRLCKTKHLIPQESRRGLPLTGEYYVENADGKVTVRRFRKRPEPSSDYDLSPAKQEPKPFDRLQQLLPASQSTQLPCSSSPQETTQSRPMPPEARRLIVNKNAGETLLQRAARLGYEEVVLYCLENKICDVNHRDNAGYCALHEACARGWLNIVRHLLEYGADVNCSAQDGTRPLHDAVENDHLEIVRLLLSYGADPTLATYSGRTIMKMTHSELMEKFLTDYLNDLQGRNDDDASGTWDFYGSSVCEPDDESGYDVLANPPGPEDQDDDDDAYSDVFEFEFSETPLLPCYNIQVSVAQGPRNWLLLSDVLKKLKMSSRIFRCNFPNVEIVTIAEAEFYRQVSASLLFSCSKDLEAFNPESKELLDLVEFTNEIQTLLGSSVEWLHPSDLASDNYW
UniProt Q8WXI9: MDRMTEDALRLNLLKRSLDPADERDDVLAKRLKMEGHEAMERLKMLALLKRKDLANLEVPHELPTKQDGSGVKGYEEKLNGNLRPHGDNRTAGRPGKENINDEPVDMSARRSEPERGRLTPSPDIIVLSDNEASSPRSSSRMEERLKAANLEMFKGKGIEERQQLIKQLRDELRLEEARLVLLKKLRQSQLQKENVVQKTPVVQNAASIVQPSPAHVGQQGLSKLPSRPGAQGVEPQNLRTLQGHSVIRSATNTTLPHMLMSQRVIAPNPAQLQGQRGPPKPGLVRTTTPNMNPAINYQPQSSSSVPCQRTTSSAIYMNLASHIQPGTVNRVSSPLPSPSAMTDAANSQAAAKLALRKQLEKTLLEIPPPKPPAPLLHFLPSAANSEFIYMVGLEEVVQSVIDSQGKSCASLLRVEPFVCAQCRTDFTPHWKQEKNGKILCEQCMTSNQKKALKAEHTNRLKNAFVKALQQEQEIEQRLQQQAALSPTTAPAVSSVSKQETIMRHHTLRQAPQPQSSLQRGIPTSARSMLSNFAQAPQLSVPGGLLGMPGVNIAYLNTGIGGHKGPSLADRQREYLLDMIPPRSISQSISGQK

T2: YFP-TBR1 p.Q178E (human) (UniProt Q16650)
T2 sequence: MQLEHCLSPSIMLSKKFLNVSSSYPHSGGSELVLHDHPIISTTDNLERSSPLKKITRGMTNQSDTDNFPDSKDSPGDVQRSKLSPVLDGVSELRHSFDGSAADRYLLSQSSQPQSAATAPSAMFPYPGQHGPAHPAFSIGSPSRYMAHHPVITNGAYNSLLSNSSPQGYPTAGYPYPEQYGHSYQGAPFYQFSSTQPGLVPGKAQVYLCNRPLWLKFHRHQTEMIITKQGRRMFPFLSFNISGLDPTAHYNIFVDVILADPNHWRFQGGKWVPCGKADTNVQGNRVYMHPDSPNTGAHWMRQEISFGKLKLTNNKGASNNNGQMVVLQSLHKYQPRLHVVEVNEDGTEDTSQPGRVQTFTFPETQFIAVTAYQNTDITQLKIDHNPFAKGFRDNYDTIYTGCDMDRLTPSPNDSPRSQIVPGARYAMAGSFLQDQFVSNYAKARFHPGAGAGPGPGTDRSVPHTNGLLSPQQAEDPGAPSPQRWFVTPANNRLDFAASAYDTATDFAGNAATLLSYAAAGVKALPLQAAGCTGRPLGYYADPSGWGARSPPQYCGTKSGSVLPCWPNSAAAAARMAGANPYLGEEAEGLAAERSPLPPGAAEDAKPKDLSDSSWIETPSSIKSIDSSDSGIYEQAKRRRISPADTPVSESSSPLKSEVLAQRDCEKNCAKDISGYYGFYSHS

T3: YFP-TBR1 p.S351* (human) (UniProt Q16650)
T3 sequence: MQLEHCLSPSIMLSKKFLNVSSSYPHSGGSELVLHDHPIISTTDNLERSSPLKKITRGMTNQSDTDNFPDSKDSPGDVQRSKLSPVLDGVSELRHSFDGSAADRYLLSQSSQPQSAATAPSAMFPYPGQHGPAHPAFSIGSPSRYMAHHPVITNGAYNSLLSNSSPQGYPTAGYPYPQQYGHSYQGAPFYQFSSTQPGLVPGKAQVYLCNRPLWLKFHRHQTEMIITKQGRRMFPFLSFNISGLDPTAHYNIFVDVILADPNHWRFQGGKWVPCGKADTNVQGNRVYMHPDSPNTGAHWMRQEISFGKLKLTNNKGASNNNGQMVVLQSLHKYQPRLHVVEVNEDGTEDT

T4: YFP-TBR1 p.S568* (human) (UniProt Q16650)
T4 sequence: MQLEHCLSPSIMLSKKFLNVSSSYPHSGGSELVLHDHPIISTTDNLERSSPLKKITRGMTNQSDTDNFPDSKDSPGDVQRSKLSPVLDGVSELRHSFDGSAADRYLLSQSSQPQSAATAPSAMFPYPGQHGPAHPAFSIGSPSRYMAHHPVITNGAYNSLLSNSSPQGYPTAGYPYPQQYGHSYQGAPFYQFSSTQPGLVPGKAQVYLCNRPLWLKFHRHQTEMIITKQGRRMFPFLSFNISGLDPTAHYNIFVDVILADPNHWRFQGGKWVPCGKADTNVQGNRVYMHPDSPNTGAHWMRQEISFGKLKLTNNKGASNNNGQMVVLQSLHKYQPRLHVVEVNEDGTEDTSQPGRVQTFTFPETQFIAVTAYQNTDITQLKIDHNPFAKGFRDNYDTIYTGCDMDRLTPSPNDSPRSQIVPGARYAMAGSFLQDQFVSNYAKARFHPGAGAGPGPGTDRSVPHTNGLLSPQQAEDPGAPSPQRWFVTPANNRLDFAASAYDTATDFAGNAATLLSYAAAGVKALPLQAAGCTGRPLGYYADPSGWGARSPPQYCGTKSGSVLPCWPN


Experiments:
Assay in all cases: FRET or BRET; BRET in live HEK293 cells transfected with pairs of N-terminal Rluc and YFP fusions, 96-well plates; EnduRen substrate 48 h after transfection; Rluc-NLS and YFP-NLS as controls
YFP-TBR1 p.Q418R (human) = biological target: T1, YFP-TBR1 p.Q418R (human)
YFP-TBR1 p.Q178E (human) = biological target: T2, YFP-TBR1 p.Q178E (human)
YFP-TBR1 p.S351* (human) = biological target: T3, YFP-TBR1 p.S351* (human)
YFP-TBR1 p.S568* (human) = biological target: T4, YFP-TBR1 p.S568* (human)

Molecule	binding (YFP-TBR1 p.Q418R (human))	binding (YFP-TBR1 p.Q178E (human))	binding (YFP-TBR1 p.S351* (human))	binding (YFP-TBR1 p.S568* (human))
Rluc-BCOR (from UniProt Q6W2J9 1-1755)	binds weakly	binds	no binding	binds
Rluc-GATAD2B (from UniProt Q8WXI9 1-593)	no binding	binds	no binding	binds
Rluc-ADNP (protein, UniProt Q9H2P0 1-1102) MFQLPVNNLGSLRKARKTVKKILSDIGLEYCKEHIEDFKQFEPNDFYLKNTTWEDVGLWDPSLTKNQDYRTKPFCCSACPFSSKFFSAYKSHFRNVHSEDFENRILLNCPYCTFNADKKTLETHIKIFHAPNASAPSSSLSTFKDKNKNDGLKPKQADSVEQAVYYCKKCTYRDPLYEIVRKHIYREHFQHVAAPYIAKAGEKSLNGAVPLGSNAREESSIHCKRCLFMPKSYEALVQHVIEDHERIGYQVTAMIGHTNVVVPRSKPLMLIAPKPQDKKSMGLPPRIGSLASGNVRSLPSQQMVNRLSIPKPNLNSTGVNMMSSVHLQQNNYGVKSVGQGYSVGQSMRLGLGGNAPVSIPQQSQSVKQLLPSGNGRSYGLGSEQRSQAPARYSLQSANASSLSSGQLKSPSLSQSQASRVLGQSSSKPAAAATGPPPGNTSSTQKWKICTICNELFPENVYSVHFEKEHKAEKVPAVANYIMKIHNFTSKCLYCNRYLPTDTLLNHMLIHGLSCPYCRSTFNDVEKMAAHMRMVHIDEEMGPKTDSTLSFDLTLQQGSHTNIHLLVTTYNLRDAPAESVAYHAQNNPPVPPKPQPKVQEKADIPVKSSPQAAVPYKKDVGKTLCPLCFSILKGPISDALAHHLRERHQVIQTVHPVEKKLTYKCIHCLGVYTSNMTASTITLHLVHCRGVGKTQNGQDKTNAPSRLNQSPSLAPVKRTYEQMEFPLLKKRKLDDDSDSPSFFEEKPEEPVVLALDPKGHEDDSYEARKSFLTKYFNKQPYPTRREIEKLAASLWLWKSDIASHFSNKRKKCVRDCEKYKPGVLLGFNMKELNKVKHEMDFDAEWLFENHDEKDSRVNASKTADKKLNLGKEDDSSSDSFENLEEESNESGSPFDPVFEVEPKISNDNPEEHVLKVIPEDASESEEKLDQKEDGSKYETIHLTEEPTKLMHNASDSEVDQDDVVEWKDGASPSESGPGSQQVSDFEDNTCEMKPGTWSDESSQSEDARSSKPAAKKKATMQGDREQLKWKNSSYGKVEGFWSKDQSQWKNASENDERLSNPQIEWQNSTIDSEDGEQFDNMTDGVAEPMHGSLAGVKLSSQQA	no binding	binds	no binding	binds
Rluc-NR2F1 (protein, UniProt P10589 1-423) MAMVVSSWRDPQDDVAGGNPGGPNPAAQAARGGGGGAGEQQQQAGSGAPHTPQTPGQPGAPATPGTAGDKGQGPPGSGQSQQHIECVVCGDKSSGKHYGQFTCEGCKSFFKRSVRRNLTYTCRANRNCPIDQHHRNQCQYCRLKKCLKVGMRREAVQRGRMPPTQPNPGQYALTNGDPLNGHCYLSGYISLLLRAEPYPTSRYGSQCMQPNNIMGIENICELAARLLFSAVEWARNIPFFPDLQITDQVSLLRLTWSELFVLNAAQCSMPLHVAPLLAAAGLHASPMSADRVVAFMDHIRIFQEQVEKLKALHVDSAEYSCLKAIVLFTSDACGLSDAAHIESLQEKSQCALEEYVRSQYPNQPSRFGKLLLRLPSLRTVSSSVIEQLFFVRLVGKTPIETLIRDMLLSGSSFNWPYMSIQCS	binds	binds	no binding	binds
Rluc-NR2F2 (protein, UniProt P24468 1-414) MAMVVSTWRDPQDEVPGSQGSQASQAPPVPGPPPGAPHTPQTPGQGGPASTPAQTAAGGQGGPGGPGSDKQQQQQHIECVVCGDKSSGKHYGQFTCEGCKSFFKRSVRRNLSYTCRANRNCPIDQHHRNQCQYCRLKKCLKVGMRREAVQRGRMPPTQPTHGQFALTNGDPLNCHSYLSGYISLLLRAEPYPTSRFGSQCMQPNNIMGIENICELAARMLFSAVEWARNIPFFPDLQITDQVALLRLTWSELFVLNAAQCSMPLHVAPLLAAAGLHASPMSADRVVAFMDHIRIFQEQVEKLKALHVDSAEYSCLKAIVLFTSDACGLSDVAHVESLQEKSQCALEEYVRSQYPNQPTRFGKLLLRLPSLRTVSSSVIEQLFFVRLVGKTPIETLIRDMLLSGSSFNWPYMAIQ	binds	binds	no binding	binds

Reference: paper PMC10117376
